Laboratory results taken from US20240141059A1 (Bristol-Myers Squibb, published 2024).

How the values were obtained:
[1] = target: T1, hCD32a-R131 (human, UniProt P12318 34-217); test: SPR, FcgR analyte titration on protein A-captured dAb-Fc
T1 construct: Purified FcgR analyte in solution; also called FcgRIIa-R131
T1 sequence (looked up): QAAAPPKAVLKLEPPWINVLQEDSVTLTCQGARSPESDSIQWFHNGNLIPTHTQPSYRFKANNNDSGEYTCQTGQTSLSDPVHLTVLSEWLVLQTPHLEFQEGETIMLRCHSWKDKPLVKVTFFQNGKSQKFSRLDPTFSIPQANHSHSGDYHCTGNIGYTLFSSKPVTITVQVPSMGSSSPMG
Experimental: (§1) A second SPR assay for testing the interaction between antibodies or dAb-Fc proteins with FcgR proteins is a protein A capture method. […] For these studies, protein A is immobilized on flow cells 1-4 of a CM5 sensor chip using standard ethyl (dimethylaminopropyl) carbodiimide (EDC)/N-hydroxysuccinimide (NHS) chemistry, with ethanolamine blocking, in a running buffer of 10 mM HEPES pH 7.4, 150 mM NaCl, 3 mM EDTA, 0.05% surfactant p20, to a density of ˜3000 RU.

[2] = target: T2, hCD64 (human, UniProt P12314 16-288, limits assumed); test: as above
T2 construct: Purified FcgR analyte in solution; also called hFcgRI; FcgRI
Experimental: as §1

[3] = target: T3, hCD40-Fc (human, UniProt P25942 in part); test: SPR, hCD40-Fc immobilized, dAb-Fc analyte, avidity
T3 construct: Immobilized on the sensor chip; not shown: Fc part of hCD40-Fc not described

[4] = target: T4, purified human-CD40 monomer (human, UniProt P25942 in part, limits assumed); test: SPR, dAb-Fc on protein A, hCD40monomer analyte; material from UCOE-CHO cells
T4 construct: Soluble analyte; also called hCD40monomer

[5] = target: T4, purified human-CD40 monomer; test: SPR, dAb-Fc on protein A, hCD40monomer analyte; material from UCOE-CHO cells; second set
[6] = target: T4, purified human-CD40 monomer; test: SPR, dAb-Fc on protein A, hCD40monomer analyte; second set

hCD40-Fc, sequence (P25942 21-193): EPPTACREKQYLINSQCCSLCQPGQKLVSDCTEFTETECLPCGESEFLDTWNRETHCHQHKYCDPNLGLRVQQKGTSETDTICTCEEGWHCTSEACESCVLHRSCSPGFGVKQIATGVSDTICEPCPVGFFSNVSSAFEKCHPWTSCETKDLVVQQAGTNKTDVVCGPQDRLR
T4 sequence (P25942 21-193 limits assumed): as the sequence (P25942 21-193) above
T2 sequence (P12314 16-288 limits assumed): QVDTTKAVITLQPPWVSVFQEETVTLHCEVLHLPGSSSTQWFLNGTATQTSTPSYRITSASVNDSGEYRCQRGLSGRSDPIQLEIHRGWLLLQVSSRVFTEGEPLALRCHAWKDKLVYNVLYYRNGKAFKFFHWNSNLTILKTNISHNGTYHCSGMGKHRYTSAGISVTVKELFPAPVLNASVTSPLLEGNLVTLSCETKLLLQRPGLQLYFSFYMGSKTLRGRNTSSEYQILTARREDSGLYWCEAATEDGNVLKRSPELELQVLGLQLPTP

B1: 3h56-269-IgG4.1 (Fc fusion)
chain: EVQLLESGGGLVQPGGSLRLSCAASGFTFRDYEMWWVRQAPGKGLERVSAINPQGTRTYYADSVKGRFTISRDNSKNTLYLQMNSLRAEDTAVYYCAKLPFRFSDRGQGTLVTVSSAST[left out - human IgG4 Fc with S228P (EU numbers)]
notes: also called BMS-986090
Kd [1]: 2200 nM
Kd [2]: 2.8 nM

B2: 3h56-269-IgG4.1 (Fc fusion)
chain: B1 chain
notes: dAb-Fc fusion protein; also called BMS-986090
KDapparent [3]: < 1 nM

B3: 3h56-269-CT (Fc fusion)
chain: EVQLLESGGGLVQPGGSLRLSCAASGFTFRDYEMWWVRQAPGKGLERVSAINPQGTRTYYADSVKGRFTISRDNSKNTLYLQMNSLRAEDTAVYYCAKLPFRFSDRGQGTLVTVSSAST[left out - human IgG1 Fc with changes]
notes: dAb-Fc fusion protein
Kd [4]: 7.7 nM
koff [4]: 0.00013 s⁻¹
kon [4]: 16000 M⁻¹ s⁻¹
Kd [5]: 7 nM
koff [5]: 0.00014 s⁻¹
kon [5]: 19000 M⁻¹ s⁻¹
Kd [6]: 7.3 nM
koff [6]: 0.00012 s⁻¹
KDapparent [3]: < 1 nM

B4: 3h56-269-IgG1-D265A (Fc fusion)
chain: EVQLLESGGGLVQPGGSLRLSCAASGFTFRDYEMWWVRQAPGKGLERVSAINPQGTRTYYADSVKGRFTISRDNSKNTLYLQMNSLRAEDTAVYYCAKLPFRFSDRGQGTLVTVSSAST[left out - human IgG1 Fc with D265A (EU numbers)]
notes: dAb-Fc fusion protein
KDapparent [3]: < 1 nM
